Measured values reported in the supplement of paper PMC11417369.
± gives the standard deviation of the averaged measurements. This is one part of the list.

System: PfAP2-I AP2 domain 3 (GST-tagged)
Assay: gcPBM binding intensity (ln(normalized median fluorescence intensity)); higher = stronger DNA binding
Outline: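 Probes on an Agilent 4 × 180k array were primer-extended, double-stranded and 36 bp long, taken from intergenic genomic regions, with negative controls added. GST-tagged P. falciparum DNA-binding domains from E. coli, about 25 μg on average, were applied to the array for 1 h in 1× PBS containing 1% milk, 0.2 mg/ml BSA, 0.5% salmon testes DNA and 0.03% Triton X-100. Binding intensity, obtained after Alexa488 anti-GST antibody detection and a 488 nm scan, is the highest Masliner-normalised natural-log median intensity across replicate spots of either probe orientation.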

Row | Sequence | gcPBM binding intensity (ln)
1 | AAATATCTTTTATATTGTACATATTCCTTATGTGGA [XGTACX_site7638] | 7.44 ± 0.47
2 | GAAATAGAAATAAAATAGGCATACAATAGAACTAAG [TGCATGCA_negctrl_site537] | 7.82 ± 0.64
3 | TTATATATATATAATACACACATAATAATATATTTA [CACACA_site3038] | 7.67 ± 0.23
4 | ATTTTTTTTATTTTTTCAATATATATATATATATAT [CACACA_negctrl_site1444] | 9.45 ± 0.32
5 | TTATATATATATTATAGTACATATATAATATAGTAA [XGTACX_site6869] | 7.45 ± 0.3
6 | ATATATGAGCAAAAATATATAAGATAACACATAAAT [CACACA_negctrl_site167] | 7.76 ± 0.81
7 | TCTCTATAAATAAATACATGCATATAATAAAGAATT [TGCATGCA_site710] | 7.83 ± 0.63
8 | ATAAGATATGTATATACACACATTTATTTACATATA [CACACA_site3263] | 7.76 ± 0.54
9 | GCATAAGAAATAAATAGTACACACATAGACACACAC [XGTACX_site3095] | 9.37 ± 0.28
10 | TATATATATATATACACACACATATATATATATATA [CACACA_site1346] | 9.24 ± 0.51
11 | CGCACAAAAATATACACACACACATCTATATTTATT [CACACA_site7675] | 8.02 ± 0.37
12 | AAAACAAATGAGTACACACACATAAAAGTTGAAAAT [CACACA_site6238] | 8.02 ± 0.52
13 | TACCCATATTAATATGTGCGCATATAAAAGTCAAAC | 8.58 ± 0.44
14 | ATATATATATCAACAACACACGATTAACTAAAAAAA [CACACA_site302] | 8.8 ± 0.19
15 | TTTTTTTAAACTGAAAGTACTTATTCCAAGAAAATA [XGTACX_site50] | 7.64 ± 0.42
16 | ATAATGACTAAATTTAAACACACAAGGGGAGTTTAC [CACACA_site8209] | 7.58 ± 0.8
17 | AAAAAAAAAAATATATTATTTTACTTGTTTATTTTT [GTGCAC_negctrl_site435] | 7.26 ± 0.47
18 | AATAATCAAATATTAAAAATTGTGCAAAAAAAAAAA [XGTACX_negctrl_site399] | 9.69 ± 0.16
19 | TCGTACTTGTATTATGCACACATATAATTAAACATA [CACACA_site9089] | 10.2 ± 0.57
20 | TATGAAAAAATATATACACACATAATAAAGGTATAT [CACACA_site3737] | 7.73 ± 0.59
21 | TTTGTTTTAAATATTATACACACGTAAAAGTATAAT [CACACA_site7954] | 7.82 ± 0.39
22 | TAATATTATATATAAACACACATACCCATGTAAATA [CACACA_site5170] | 7.7 ± 0.74

Row | Sequence | gcPBM binding intensity (ln)
23 | TTCAATAGTAAGTATACACACATATATATATATAAA [CACACA_site2687] | 7.82 ± 0.47
24 | TAATTCGCAAAAGAAAGAAATTAAGAAAAAGAAAAA [XGTACX_negctrl_site614] | 7.38 ± 0.74
25 | TTTCTTTTTTTTTTTTCATTGATCCATTTATGATTA [TGCATGCA_negctrl_site225] | 7.42 ± 0.56
26 | TTATAGGTTCTATACATATATTTATATATGTACAGA [CACACA_negctrl_site60] | 7.38 ± 0.19
27 | TTTTTAAAAATATACACACACAGATATTATAGATAT [CACACA_site6511] | 7.92 ± 0.7
28 | CAAGCTATGTATTCTACACACACATACACCCATATA [CACACA_site9133] | 8.15 ± 0.71
29 | TAAAAAAAATAAACGTGTACATAAAAATGAATATGT [XGTACX_site119] | 8.38 ± 0.71
30 | TTAATATATTAAATCTTACACACTAAAAAATATGTA [CACACA_site307] | 7.47 ± 0.5
31 | AGTATACATATATATACACACACACCGATATATATA [CACACA_site8357] | 8.05 ± 0.74
32 | TATGCGTCTTGCCTTGCACACTTTTATGAAAAAAAA [CACACA_site5174] | 8.22 ± 0.35
33 | GAAAATATTATAGCACCACACACTTATTTTATATAT [CACACA_site2265] | 10.5 ± 0.71
34 | AACGTTAAAAAAAAAATATATATAAGGAGAAAGCAC [XGTACX_negctrl_site338] | 9.035 ± 0.007
35 | ATATGTAAATAAATATGTACTCATTTATTATTTTAT [XGTACX_site8748] | 7.91 ± 0.22
36 | CGTTATATATATAAAAGTACAAAAATTAAACATTCC [XGTACX_site4568] | 7.78 ± 0.57
37 | ATATGTATATTTTTTTGTACGTATTTATGTGTGTGT [XGTACX_site2093] | 8.12 ± 0.13
38 | ATATTTTATGTGTTGGTGCACATCTTTATTTAAACT [GTGCAC_site9736] | 10.2 ± 0.28
39 | ATATATACAAGTATTTTTTTTTCAAACATTATTTTT [CACACA_negctrl_site1808] | 7.66 ± 0.61
40 | ATATATATAATATAATGTACGTATAATAATATGAGA [XGTACX_site2282] | 8.1 ± 0.28
41 | TAATAAATAAAATATGCACACAAATATAGGAAACAA [CACACA_site8820] | 8.83 ± 0.67
42 | TAAAAGGTGTATATAATACACACGTGGGATTAGAAT [CACACA_site610] | 8.32 ± 0.94
43 | ATATATATATATATATGTACATAATAATATATATTA [XGTACX_site111] | 9.38 ± 0.41
44 | AAAATATTATAAATTTGTACTTATAAATATTGTATA [XGTACX_site8165] | 7.62 ± 0.3
